From article PMC4242493
The list shows a part of the results. The list includes weakly bound sequences.

Molecular target: MaxL homodimer (UniProt P61244)
Assay: universal protein-binding microarray (PBM)
Conditions: PBS-based mixture, 10 nM His-tagged protein dimer, 2% milk, 200 ng/uL BSA, 50 ng/uL salmon testes DNA, 0.02% TX-100; detection with Alexa 488 anti-His …; high values mean tight binding; most listed sequences are background and not binding sites; double strand, one strand shown

UniProt P61244, sequence (P61244 whole entry): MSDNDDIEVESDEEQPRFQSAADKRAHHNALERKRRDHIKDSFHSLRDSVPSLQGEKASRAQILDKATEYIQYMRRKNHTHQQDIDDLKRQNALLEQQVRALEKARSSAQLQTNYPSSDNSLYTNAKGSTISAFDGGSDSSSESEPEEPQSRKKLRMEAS

Sequence	binding signal (normalized occupancy)
AGTTTAGC	0.0735
AGATGGCC	0.0781
ATTTTTCC	0.0726
GAGCTTGA	0.0669
CACTTTGA	0.0776
CCCGCCGG	0.0718
ATAACTAT	0.0809
TAAACTCA	0.0755
CCCTCCAA	0.075
AAGCTCCC	0.0683
CAACGCCA	0.078
ACACTCAA	0.0744
AGCGCTCA	0.0668
AAAGTACA	0.0761
CTCGAGTC	0.0755
ATGCAACA	0.0793
CCAATACC	0.078
ATGAATAA	0.0849
CTGATAGA	0.0736
ATTTGGAC	0.0778
AATGGGTC	0.077
GCACTGCA	0.0725
AAACACTA	0.0792
ATGCTTTC	0.0842
ACCTATAG	0.0762

Sequence	binding signal (normalized occupancy)
CCTCCCCA	0.0793
GTTCGGCA	0.0797
AAGCTCTA	0.0723
GCAAGTCA	0.0775
ACAGCTGA	0.0688
GAAAAGCA	0.0706
GAAGAGCC	0.0677
CGGTCCCC	0.0709
ACGTCAAG	0.0766
ATTAGGTA	0.0783
GCTTGTCA	0.0744
AGCTTTAC	0.0721
GCCACTAC	0.0738
TCAGCGAA	0.0689
ACATTCAC	0.0829
CAAATTCC	0.077
ACTCTAAG	0.0774
AACGGAAA	0.0704
CCGCAATA	0.0693
GTAGTTGA	0.0738
CAGCGGCC	0.0652
AGAGCGTG	0.0963
GCAGTAAC	0.0744
AGAGACAC	0.0742
ACTTCCGA	0.0725

Sequence	binding signal (normalized occupancy)
AATCACAA	0.0813
AAACATTG	0.0754
CCATTTCA	0.0736
CAAGGACC	0.0719
GTATGACA	0.0848
AATCTGAT	0.077
CGTTAGGA	0.076
ACTTTTCA	0.0767
ACGCACAT	0.0968
ATTAGGGG	0.0814
ATCAACGA	0.0713
ATTGAAAC	0.0762
AGATACCT	0.0734
ATGGGGTC	0.0935
CTTTACAA	0.0732
ACGCCCAA	0.073
CCGAGGGA	0.0724
GCCGGCTA	0.0655
CGCGAGAC	0.0744
GGGACTCA	0.0716
ATGGAGAA	0.0775
AGAAGTCG	0.0714
TCAGCTAA	0.0702
AAACTCTA	0.0728
GACCTTTA	0.075

Sequence	binding signal (normalized occupancy)
AAGAAACC	0.0743
ACACGGTC	0.0754
AGTATGTG	0.081
GCTGAGCC	0.0713
AGGCTCGG	0.0668
ATGCCTAC	0.0877
AAAGGCTT	0.0694
ATGAGTGC	0.0831
AATGTGCT	0.0916
ACTTGGGC	0.0727
AGTTCCAA	0.0691
AAGGCTTG	0.0703
CCGCCCAG	0.0767
CTACCGAA	0.0705
ATCCAAAC	0.0779
ATTTATCC	0.0788
CTCAGGAA	0.0716
CACAGTTC	0.0766
CCGTGCCA	0.0772
CAGATTAC	0.0759
ACGGAGAT	0.075
CTCTAACA	0.0777
GAGAGTGA	0.0766
AGAGAAGG	0.0701
ACTGTATG	0.0769

Sequence	binding signal (normalized occupancy)
GGAATTAA	0.0765
CAGGTAAC	0.0729
CGTTAGAA	0.0775
CATCTTAC	0.0803
TAAGCCTA	0.0687
ACGGGCTG	0.0708
GACGCGCA	0.0689
CCGCCTGA	0.0792
AGATGGAA	0.0827
ATATAATA	0.0802
CGCTGGGC	0.0691
ATCCGAAT	0.078
CCATTGAC	0.0772
AACAGGGC	0.0734
CAAAGTAC	0.0725
GCATCGAC	0.074
CTGTAGTC	0.073
CGCCCAAG	0.0681
CGATCCAA	0.0721
CGCCGGAG	0.0692
GACCAGAA	0.0778
GAGCCCCA	0.0691
CAATGAAC	0.0733
ATACATAC	0.0912
GCGAGTGA	0.0741

Sequence	binding signal (normalized occupancy)
AGCGACGG	0.0683
ACTCTACA	0.0806
ATCCTCAC	0.0798
ACTAACCA	0.075
CAAGCTCC	0.0732
TGCCCGCA	0.0797
ACATCTGA	0.0827
CTAACCAG	0.0756
CCTTCAGA	0.0732
CCCCAGAA	0.073
ATCGCTGC	0.0671
CCACAGCG	0.0735
GGACGCCA	0.0682
AGACAGCG	0.0705
AAGCTATC	0.0722
CCGAGAGA	0.0728
GCTCCGAA	0.0665
AATAGAAT	0.0817
CGCGTGCA	0.134
CGCGAGAG	0.0695
ACCCAACT	0.075
AATTGGCC	0.0709
AGATACCG	0.0745
CATCAGGC	0.0794
CGCTCTAC	0.0758

Sequence	binding signal (normalized occupancy)
CAGAAGGA	0.0718
AGCATTTC	0.0792
CATATCGG	0.0831
GAAAAATC	0.0723
ATAATGGA	0.0776
ATTTCAAG	0.0781
TATAGAGA	0.0759
CAGATGCG	0.078
GCCAGGGA	0.0703
CGGCAACA	0.073
GTTCAAAA	0.0725
ATAGTTTG	0.0788
AAGAATTG	0.0747
AACGCACG	0.091
AATTCTAT	0.0792
GACTACGC	0.0668
GCGCGTAC	0.0739
ACATGTGA	0.166
ATTATCTG	0.0764
AATTTTCT	0.0797
GTGTTGAA	0.0821
AACACTGA	0.0741
